Assay results as given in paper PMC4336329 (PLoS ONE, 2015).
In all, about 310,000 compounds went through this assay and about 14,000 (4.5%) showed an effect of 50% or more. Effects have a minus sign here. Some of the results follow.

The molecules below were run against human ether-à-go-go-related gene (hERG) potassium channel (human, UniProt Q12809) (assay: primary screen, population patch clamp on CHO cells stably expressing hERG).
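Also: peak tail current of the secondary pulse compared with the same well before compound.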

Chain of human ether-à-go-go-related gene (hERG) potassium channel (Q12809 whole entry, looked up): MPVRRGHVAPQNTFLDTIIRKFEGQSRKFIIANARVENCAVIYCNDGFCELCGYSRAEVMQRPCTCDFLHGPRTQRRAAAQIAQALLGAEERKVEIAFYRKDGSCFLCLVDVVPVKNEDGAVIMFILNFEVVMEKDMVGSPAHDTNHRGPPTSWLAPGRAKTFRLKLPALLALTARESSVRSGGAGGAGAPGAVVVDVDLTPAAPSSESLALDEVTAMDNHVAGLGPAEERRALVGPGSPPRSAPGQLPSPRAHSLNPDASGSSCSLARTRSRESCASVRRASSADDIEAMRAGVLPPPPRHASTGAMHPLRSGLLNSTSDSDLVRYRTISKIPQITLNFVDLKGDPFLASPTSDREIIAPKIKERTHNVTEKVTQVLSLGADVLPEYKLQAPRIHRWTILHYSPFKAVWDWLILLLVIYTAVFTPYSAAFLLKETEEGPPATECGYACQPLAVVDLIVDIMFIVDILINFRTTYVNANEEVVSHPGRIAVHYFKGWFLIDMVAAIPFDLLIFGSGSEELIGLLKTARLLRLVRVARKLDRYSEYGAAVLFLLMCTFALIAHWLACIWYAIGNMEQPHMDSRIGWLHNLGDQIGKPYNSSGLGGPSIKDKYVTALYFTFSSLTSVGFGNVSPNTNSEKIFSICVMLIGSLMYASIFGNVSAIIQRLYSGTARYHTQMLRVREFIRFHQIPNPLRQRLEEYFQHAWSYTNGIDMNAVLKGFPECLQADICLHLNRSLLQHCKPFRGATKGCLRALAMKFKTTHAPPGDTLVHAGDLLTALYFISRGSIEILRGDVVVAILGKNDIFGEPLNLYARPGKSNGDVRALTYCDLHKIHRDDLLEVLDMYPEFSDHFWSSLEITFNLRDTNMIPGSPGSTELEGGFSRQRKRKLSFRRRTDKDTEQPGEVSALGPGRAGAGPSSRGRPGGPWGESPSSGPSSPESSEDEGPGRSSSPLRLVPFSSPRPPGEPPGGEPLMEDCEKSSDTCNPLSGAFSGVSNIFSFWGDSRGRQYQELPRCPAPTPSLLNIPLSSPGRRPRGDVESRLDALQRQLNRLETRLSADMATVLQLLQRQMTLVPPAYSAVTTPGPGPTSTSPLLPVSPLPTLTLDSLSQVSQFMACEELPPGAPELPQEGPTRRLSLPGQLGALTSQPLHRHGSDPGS

SMILES	hERG current change (%, negative = inhibition) at 10uM [%]
C=CCSc1nc2ccccc2c(=O)n1C1CCOC(C)(C)C1 (centres unmarked)	-11
O=c1c2cc(N3CCOCC3)ccc2[nH]c(=S)n1CCCN1CCN(c2ccccc2F)CC1	-9.29
CC(C(=O)N1CCc2ccccc21)N1CCN(Cc2ccccc2)CC1 (centres unmarked)	-34
CC(C)C(c1nnnn1Cc1ccco1)N1CCN(c2cccc(Cl)c2)CC1 (centres unmarked)	-2.44
Cc1ccc(Cl)cc1NC(=O)CCn1cccc1	4.25
O=C(NNC(=O)c1ccc(-n2cncn2)c([N+](=O)[O-])c1)c1ccccc1	9.34
COc1ccc(CCNCc2ccsc2)cc1OC	1.86
COc1ccc(CC(=O)n2[nH]c(=O)cc(C)c2=O)cc1OC	-1.22
CCSC1=C(C#N)C(c2ccc(C)s2)CC(=O)N1 (centres unmarked)	-4.59
O=c1c2ccccc2c(-c2ccccc2)nn1Cc1ccc(Cl)cc1	17.1
C#CCSc1nc(=O)c2cccnc2n1-c1ccc(C)cc1	-27.9
COc1cc(/C=C/C(=O)NCCn2c(C)cc3ccccc32)cc(OC)c1OC	-20.1
C/C(=C\C(=O)c1ccc(C)cc1)NCc1ccc(F)cc1	-5.59
NCCc1cnc[nH]1	3.74
CSCCC(NC(=O)c1ccccc1)C(=O)OCC(=O)c1ccc[nH]1 (centres unmarked)	-11.6
CCc1cc(C(=O)NC2CCCc3c2cnn3-c2cccc(C)c2C)n(C)n1 (centres unmarked)	5.44
CC(C)Sc1nc2sc3c(c2c2nnc(SCC(=O)NCc4ccco4)n12)CCCC3	-13.3
COc1ccc(NC(=O)C2CCC(CNC(=O)[C@@H]3Cc4ccccc4CN3)CC2)cc1 (some centres unmarked)	-0.295
NC(=O)Cc1ccc(C(=O)c2ccccc2F)s1	9.26

SMILES	hERG current change (%, negative = inhibition) at 10uM [%]
Cn1cc(CNC(=O)C2CCC(=O)N(Cc3cccc(C(F)(F)F)c3)C2)cn1 (centres unmarked)	7.63
CC(C)c1ccc(NC2CCCN(C(=O)c3cnsn3)C2)cc1 (centres unmarked)	4.09
NC(=O)c1ccsc1NC(=O)COC(=O)Cc1n[nH]c(=O)c2ccccc12	24.2
Clc1ccc(SCCn2cncn2)cc1	-9.13
Cc1cc(CNC(=O)C(C)Cc2ccccc2)nn1C (centres unmarked)	4.57
S=C(NN=C1CCCCCC1)Nc1ccc(Cl)cc1	2.53
Fc1cccc(-c2c(-c3ccccc3)ncc3cc(F)ccc23)c1	22.9
CCn1cc(CN2CCN(C)C(CCO)C2)c2ccccc21 (centres unmarked)	1.8
Cn1c(=O)c2c(ncn2CCCl)n(C)c1=O	12.1
O=C(N/N=C/c1ccc(-c2cccc([N+](=O)[O-])c2)o1)c1ccccc1O	7.58
NC(=O)CC[C@@H]1NC(=O)[C@H](CO)NC(=O)c2cc([N+](=O)[O-])cc(I)c2NCCC[C@@H](C(N)=O)NC(=O)[C@H](Cc2ccc(O)cc2)NC1=O	-12.7
NC(=O)COc1ccc(=O)n(-c2ccccc2)n1	0.159
N#CCSc1nccc(-c2cc(Cl)sc2Cl)n1	-0.951
COc1ccc(C(=O)OC2CCN(c3ncc(C(F)(F)F)cc3Cl)CC2)cc1	0.443
Cc1cccc(CC(=O)N2CCC(N3CCC(C(=O)N4CCOCC4)CC3)CC2)c1	0.701
O=C(NCCNC(=O)c1cc(OCC(F)(F)F)ccc1OCC(F)(F)F)Nc1ccccc1	-35.2
COc1ccc(CNC(=S)N2CCN(S(=O)(=O)c3cccc(F)c3)CC2)cc1	-7.9
Oc1ccccc1/C=N/NC(=S)NCCc1ccccc1	19.7
CSCC[C@H](NC(=O)N1CCn2c1nc1ccccc12)C(=O)N[C@H](Cc1ccccc1)C(=O)O	4.8

SMILES	hERG current change (%, negative = inhibition) at 10uM [%]
CC(C)NC(=O)Cn1nnc(-c2ccc(Cl)cc2)n1	4.9
Cc1cccc(N2CCN(C(=O)c3cnn4c(C(F)F)cc(-c5ccccc5)nc34)CC2)c1C	-3.42
COc1ccc2oc(C(=O)Nc3nc(C)cs3)c(C)c2c1	11.2
OC1(c2ccc(OC(F)F)cc2)CSC(=Nc2cccnc2)N1C1CC1 (centres unmarked)	-34.2
O=C(Nc1ccc(-n2ccnc2P(=O)(O)c2ccccc2)cc1)c1ccccc1Cl	3.26
CN(C)c1nc2sc3c(c2c(=O)n1C)CC(C)(C)OC3	18.2
CCCN1CCN(CCCNC(=O)C2CCCN(c3nnc(-n4cccc4)s3)C2)CC1 (centres unmarked)	-10.4
Cc1ccc(C(CNS(=O)(=O)c2ccccc2)N2CCN(C)CC2)cc1 (centres unmarked)	-53.6
Cc1onc(-c2ccccc2Cl)c1C(=O)Nc1ccc(-c2cn3cccnc3n2)cc1	26
O=C(O)/C=C/C(=O)Nc1ccc(OCc2ccccc2)cc1	8.53
COc1ccc(CNC(=O)CSc2nc(-c3ccccc3)cc(-c3cccs3)c2C#N)cc1	-2.25
CCOC(=O)C1(CCCc2ccccc2)CCN(C(=O)CN2C(=O)CSC2=O)CC1	-4.63
Cc1nc2cc(C(=O)NCCN3CCOCC3)ccc2n1-c1ccc(F)cc1F	-3.86
Cn1c(=O)c2c(nc(CN3CCc4ccccc4C3)n2Cc2ccccc2F)n(C)c1=O	-12.2
COC(=O)c1cc2c(C)cc3ccc(C)cn3c-2c1C(=O)OC	3.3
Cc1[nH]c2ccccc2c1C(c1ccccn1)c1c(C)[nH]c2ccccc12	1.02
O=C(CN1CCN(Cc2ccccc2)CC1)N/N=C/C=C/c1ccco1	-47.2
O=C(Cn1cnc2ccccc21)N/N=C/C(Br)=C/c1ccccc1	5.98
